About 540 (0.36%) of roughly 150,000 compounds showed an effect of 50% or more. The list shows a part of the results.
The compounds below were run on Plasmodium falciparum (assay: Primary screen in NF54 nanoGlo assay, in single point, at 2uM, 72h; a lower Z score goes with more inhibition). Conditions: timepoint 72 hour.
Assay type: functional, Erythrocyte

Row | SMILES | % Inhibition | Z score
1 | Cc1ccccc1OC1(C(=O)O)CCN(C(=O)[C@@H]2CCCCN2)CC1 | 5% | -0.83
2 | O=C(NCCc1ccoc1)c1ccccc1Cl | -4% | 0.66
3 | COC[C@H]1CN(C2CCC2)CC12CCN(C(=O)c1ccccc1C)CC2 | 8% | -0.91
4 | Cc1nnsc1C(=O)NC1CCCCCCC1 | 3% | -0.36
5 | Cc1cc(C)c(OCCNC(=O)N2CCC3(CCC(=O)N3)CC2)c(C)c1 | -12% | 1.34
6 | CC1CC(NC(c2cccc(Cl)c2)C(F)F)CCO1 (stereo not drawn) | -6% | 0.69
7 | Cc1noc(C)c1CCC(=O)NC1(c2cccs2)CCOCC1 | 4% | -0.56
8 | CN(C[C@@H]1CCCN1C(=O)OC(C)(C)C)C1(C(N)=O)CCCC1 | -9% | 0.91
9 | CCn1cc(Cl)c(C(=O)N(C)CC2(C)CCOCC2)n1 | 8% | -1.43
10 | CCOC(=O)CN(C)C(=O)C1c2c[nH]nc2CCC1C (stereo not drawn) | 5% | -0.67
11 | CN(CCc1ccccn1)Cc1cn2cc(Cl)ccc2n1 | 1% | -0.07
12 | COC(=O)[C@@H](NC(=O)c1cc(-c2cccc(Cl)c2)nn1C)C(C)C | -11% | 1.61
13 | CN1CCC(CCO)(NC(=O)c2ccc(F)c3occc23)CC1 | 4% | -0.48
14 | COc1ccc(C(=O)N[C@H]2CCOC[C@@H]2OCc2ccccc2)c(OC)c1 | -1% | 0.16
15 | CN(CCc1noc(-c2cc3cc(Cl)ccc3[nH]2)n1)C(=O)c1ccc(N(C)C)cc1 | -4% | 0.66
16 | COc1ccc(NC(=O)c2occc2-c2ccccc2)cc1S(=O)(=O)N1CCCCC1 | -22% | 1.89
17 | Cc1cc(N2CCN(Cc3ccc(C#CC(C)(C)O)s3)CC2)cc(C)n1 | -2% | 0.31
18 | O[C@H]1CN(Cc2nccs2)C[C@@H]1N1CCCCC1 | 9% | -0.92
19 | COc1cc(-c2nc(Cc3ccc4c(c3)OCO4)no2)ccc1O | -6% | 1.09
20 | CCCN(CCc1nc(-c2ccccc2)no1)C(=O)c1cccs1 | -17% | 2.09
21 | O=C(NCc1cncc(-c2ccoc2)c1)C1CCCC1 | 11% | -1.4
22 | CC(C)c1cc(C(=O)N2CCCC2)nn1C | -7% | 0.99
23 | C[C@@H]1N(CCC2(O)CCC2)CCOC1(C)C | -3% | 0.28
24 | Cc1noc(C2(NC(=O)Nc3ncn(C(C)(C)C)n3)CCOCC2)n1 | -11% | 2.29
25 | Cc1ccc(C(=O)N2CCCN(C(=O)CC[C@@H]3NC(=O)NC3=O)CC2)s1 | -8% | 1.17
26 | O=C(c1ccc(F)cc1Cl)N1CCCC(CN2CCC(O)C2)C1 (stereo not drawn) | 1% | -0.18
27 | Cc1nc(CC(=O)N2CCN(c3nonc3C)CC2)cs1 | -10% | 1.05

Row | SMILES | % Inhibition | Z score
28 | O=C(NC[C@H]1CCCN(c2cnsn2)C1)c1ccccn1 | -4% | 0.79
29 | CCN1CCN(Cc2cc(C)cc(CN(C)[C@@H](C)c3cccs3)c2C)CC1 | -5% | 0.68
30 | Cc1noc(C)c1CN1C(=O)N[C@@]2(CCCCc3ccccc32)C1=O | -10% | 1.29
31 | Cc1ncsc1CNc1nc(-c2cccnc2)no1 | 0% | 0.03
32 | C[C@H](NS(C)(=O)=O)C(=O)N(Cc1ccccc1F)C1CCC1 | -1% | 0.15
33 | COc1cc(C(=O)O)cc(C(=O)NCc2ccc3c(c2)nc(C)n3C)c1 | -1% | 0.25
34 | O=S(=O)(N[C@H]1CCN(CC(F)(F)F)C1)c1ccc2cn[nH]c2c1 | -9% | 1.34
35 | CC(=O)N[C@H]1[C@H](Oc2ccc3ccccc3c2)O[C@@H]2COC(C)(C)O[C@H]2[C@@H]1O | -10% | 0.9
36 | O=C(CN1C(=O)CCc2cc(Br)ccc21)Nc1ccc(CN2CCCCC2)cc1 | -5% | 0.65
37 | CC[C@H](C)NC(=O)COc1ccc(Cl)cc1C(N)=O | -8% | 0.84
38 | Cc1ccc(N=C2N[C@@](c3ccccc3)(C(F)(F)F)Oc3ccccc3O2)cc1 | 18% | -2.73
39 | O=C(NC1CC1)c1cn2c(n1)C(=O)N[C@H](c1ccc(F)cc1)C2 | -19% | 3.57
40 | CNS(=O)(=O)N1CCC[C@H](Nc2cccc(Br)c2)C1 | 1% | -0.12
41 | CN(C)C(=O)CN(C)c1ccc(F)cc1S(=O)(=O)C(F)(F)F | -10% | 1.96
42 | O=C(NCc1ccc(Cn2ccnc2)cc1)C1CCCCC1C(=O)N1CCc2ccccc21 (stereo not drawn) | 33% | -3.7
43 | O=C(Cn1c(=O)n(CCc2cccs2)c(=O)c2sccc21)N1CCN(Cc2ccccc2)CC1 | 0% | 0.05
44 | Cc1n[nH]c(C)c1CNCc1cccnc1N1CCOCC1 | 2% | -0.35
45 | CCOc1ncccc1-c1nc(C(C)(C)NC(=O)OC(C)(C)C)no1 | -13% | 2.59
46 | COCc1c(C(=O)N(C)[C@H]2CCOC2)cnn1-c1ncc2c(n1)-c1ccccc1CCC2 | -7% | 0.88
47 | COc1ccc(Cl)cc1NC(=O)CN1c2ccccc2C[C@H]1C(N)=O | -11% | 1.8
48 | Cn1cc(CNc2ccc(-n3nccc3C(F)(F)F)cc2)cn1 | -14% | 1.55
49 | CC(C)Oc1cccc2c1c(NC(=O)N(C)C)nn2-c1cccc(F)c1 | 7% | -1.34
50 | COc1ccsc1S(=O)(=O)N(C)Cc1cnc(C)s1 | -10% | 1.22
51 | Cc1ccn(C)c(=O)c1NC(=O)N1CCCC[C@H]1C(C)C | -18% | 1.58
52 | Cn1cc(-c2noc(C3(C#N)CCCCC3)n2)nn1 | 34% | -3.82
53 | O=C(NCc1cccc(F)c1)C1CCC(c2ccccc2)N(C(=O)Cc2cccs2)C1 (stereo not drawn) | 4% | -0.45
54 | Cc1cnc(C2CC2)n1[C@H]1CCN(C(=O)CCc2c[nH]c3ccccc23)C1 | -20% | 2.54

— ChEMBL document CHEMBL4888484, “Replenishing the malaria drug discovery pipeline: Screening and hit evaluation of the MMV Hit Generation Library 1 (HGL1) against asexual blood stage Plasmodium falciparum ,using a nano luciferase reporter read-out” (2022)
